# Reference: the supplement of paper PMC11417369
# This is one part of the list.
# Test system: PfHDP1 homeodomain (GST-tagged)
# Test: gcPBM binding intensity (ln(normalized median fluorescence intensity)); higher = stronger DNA binding
# Summary of the method: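 Binding intensity values are the highest Masliner-normalised natural-log median intensity among replicate spots of either probe orientation. The binding step lasted 1 h in 1× PBS with 1% milk, 0.2 mg/ml BSA, 0.5% salmon testes DNA and 0.03% Triton X-100, using GST-tagged P. falciparum DNA-binding domains expressed in E. coli on an Agilent 4 × 180k array of primer-extended double-stranded 36-bp intergenic genomic probes plus negative controls. Alexa488 anti-GST antibody and a 488 nm scan detected bound protein.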
row,Sequence,gcPBM binding intensity (ln)
1,TATAAACACCCATATAAACACACATACATACATACA [CACACA_site8791],7.58
2,TCTTTTTTTTTACATACTTTTTTCCTTTTTTTTTTA [CACACA_negctrl_site1429],6.39
3,GGGAATATATTCAATTGTACATTCTTATTTTATCCA [XGTACX_site8480],6.65
4,ACGCACGAAATAAATACATGCATATTGTAAAAATTA [TGCATGCA_site310],8.99
5,TAAATAAATAAAAAAACACACATATATATATATATA [CACACA_site4029],9.32
6,ATCAAGCACCAACACACACACACACCCCCACCCACA [CACACA_site370],6.79
7,TTTTATCACATTATTGCACACACATAAAGAAAAAAA [CACACA_site8922],9.63
8,ATATATATATATAACTGTACTTATATATACATTTTA [XGTACX_site8605],9.25
9,ATATATATATATATATGTACATATATATATAATTTT [XGTACX_site4146],9.31
10,AAAAAAAAAAAAGATACACACAAAAATGAATATATA [CACACA_site2099],6.19
11,AATAATATAGATTGTACACACAAAATGGGAAAAAAA [CACACA_site1886],7.48
12,ATAAATGGAAACAAAAGTACTAAAAAAAAAAAATAA [XGTACX_site1510],6.52
13,ATTATGTATATAAATTAACACACATATGTGGTTAAT [CACACA_site9028],6.37
14,ACGGGTCAATATATGCGTACTTATTTAAATAATTAA [XGTACX_site1518],6.56
15,TATATATGTATGTATTGTACAATTAAAAATATGTAT [XGTACX_site3990],6.68
16,ATTTTTTCTTATAATGCATGTAGAAAACCGTACAGC [TGCATGCA_site57],6.46
17,AGGCTCAAATCTAGGTGTACCATTATCGTTGTATCT [XGTACX_site4730],6.2
18,CCTAAATTATATTATGCACACTTAAAAATATATTTA [CACACA_site5861],9.95
19,TATGTGTTTATTTGGTGTACATACTAATAAATATAC [XGTACX_site1682],6.74
20,ATATATATATATATATGTACTTATTTATCGTATTAT [XGTACX_site3520],9.59
21,ATTAATATTCTATATGCATGTGAACCATGGTATATA [TGCATGCA_site430],6.44
22,TCATATCTTTTGAGCACACATATATATATATAAAGG [CACACA_site3338],7.3
23,TTTCTTTTTAAATATATACACACCGTGGGTACATAT [CACACA_site9102],6.81

row,Sequence,gcPBM binding intensity (ln)
1,TTATATTTATTTATTTGTACATATTTTTTTTTATAT [XGTACX_site1669],6.54
2,ATATAATAAAATGACACACGCATATATATATATATA [CACACA_site2789],9.45
3,ATACTAAAAAGTATCTGTACTTATTTTAAAAATAAA [XGTACX_site4116],6.05
4,TAAAAAATGAAAAAGCGTACATGTTTTCTTATATTA [XGTACX_site1722],6.11
5,TTTTCTAAAATGAATTGTACTTGATTATTTAAAAAA [XGTACX_site6097],5.72
6,TGTATCATAAAAATAACACACGTATTTTTTTTTATT [CACACA_site1050],6.42
7,TATTTACTTATATGCACACATAAATGTGAATTATGG [CACACA_site3777],10.4
8,TAAATAATTAAAATATGTACTGAAATGTAATTATTT [XGTACX_site5894],6.38
9,TTCTCATTCAAATTAGTGCATTTTTGTTATTACATT,9.79
10,AAACAGAAGACATATACACACATACAAAAAAGTGCA [CACACA_site4699],6.82
11,TGTGTATATATATAATGTACATAAAGATTTATATAT [XGTACX_site5835],6.72
12,ATATAAATTTTTTAGAGTACTAAAATAAAATAATAT [XGTACX_site2118],6.61
13,TTTTAAGAATAAAATTGTACACATACATGTGTTCGC [XGTACX_site438],6.17
14,TTATTTATATATTCATGTACATAACATTTCATTCGA [XGTACX_site4388],6.4
15,AAAAATAACGTAAATTGTACATGTAAAATTTTCTAT [XGTACX_site7158],6.46
16,ATAGAAATATATATATGTACATATAGATAAATCTAT [XGTACX_site7833],6.16
17,ATATGAAATAATAATAGTACATAAAATAATTTTACT [XGTACX_site6964],6.13
18,ATAAATACAGATAACACACACATATATATATATATA [CACACA_site5431],9.66
19,CCAACATGCCCACGCACACACAAAAAAAGCATGCAT [CACACA_site4217],7.08
20,AATAATATATATATATATATAATAAAATATAAATAG [CACACA_negctrl_site1515],6.52
21,TGTTTTATACTAAATGAACACACACCCATATATATA [CACACA_site7912],6.94
22,TTATTTATTTATAATAGTACAATTTAATGATCTTCT [XGTACX_site4831],6.13
23,CAATATATTTGATTTACACACTTACAATGTATATAA [CACACA_site2994],6.54

row,Sequence,gcPBM binding intensity (ln)
1,ATAATATTTTAATGCACACACACAAAAAAAAAAAAA [CACACA_site2891],9.96
2,AAATTTGCTTTTATTTTACACACTTGCTCCTGTTGT [CACACA_site8276],7.35
3,AAACAATCTAAAAGTAGTACAATAAAAATATATATA [XGTACX_site5607],6.69
4,AAAAAAAAATTATTCACACATATATATATATATATA [CACACA_site5579],9.3
5,GAACCATAAGGAACGACACACAAAGATAAATAAATA [CACACA_site3472],6.2
6,AAAAATAAAAAAAGCACACACATATATATATATATA [CACACA_site1885],9.32
7,TATAATCATATTAAGGGTACATATGTGTAAATATTT [XGTACX_site6018],7.05
8,TTATTATAAATGTTTTGTACGTACATCCGAAAATAA [XGTACX_site2175],6.57
9,CTTTAAAACCGGTACTGTACACATAGTATTATTATC [XGTACX_site2602],6.58
10,ATAATAATAATATAACCAAGGAAATATAATATTTGT [XGTACX_negctrl_site485],6.27
11,CGATACTTTAGGTGTACACAAATATACATGAATGAG [CACACA_site5189],7
12,AAAAAAAAGGAAATAACACACATGTATTTATTTATA [CACACA_site4966],6.3
13,AGCACATATATATTATGTACATATAACTTCCCAGTG [XGTACX_site7095],6.44
14,ATATTTATACATAAATGTACTTTTATATATTTAATA [XGTACX_site3020],6.17
15,AATATTATAAATGATACACACTTAAAATACACGCAC [CACACA_site7305],6.89
16,TATTACATAATACAAAGTACATATATTTTTTTATTT [XGTACX_site7061],6.19
17,GTATATATATATATATGTACTAATTAGTAGTTTACG [XGTACX_site6274],6.98
18,AATATAAATATTAAAACACACATAAAAAGATTATTA [CACACA_site1764],6.29
19,TGATATTTACAAATATTAAGATCTTATATTTTTTTT [CACACA_negctrl_site617],6.27
20,GTGTGAAACATAAACACACACAAAAAGAAAAAATAG [CACACA_site1227],6.68
21,TATATATATATATTACGTACATAGAACTTTATAAAA [XGTACX_site4485],8.63
22,AATATTTTATTTTGGGTGCAAAAGAATATTATTTCA,9.49
23,ATGGACATCTATTGTTGTACACATTTTCCCATAACA [XGTACX_site5429],6.44

row,Sequence,gcPBM binding intensity (ln)
1,GTAGAGCATAATAAAACACACACATACATACATATA [CACACA_site8217],8.67
2,GAATATAAAATATATATATATATATATATATATATA [GTGCAC_negctrl_site425],9.32
3,TTTCAAAAATGAGTTACACACACACGGATATAAATA [CACACA_site7116],6.61
4,GTAAAAAATATGACAAGTACAAGAAAAGAAAAAAGT [XGTACX_site7906],7.02
5,ATAGAACTATATTGCACACATAATATATATATATAT [CACACA_site3189],10.7
6,AAAAGATTTATACATACACACATATTATATTCACAT [CACACA_site3713],6.59
7,TTATAAATATAAAAATGTACAGAAAAAAAAAATAAA [XGTACX_site863],6.81
8,TTATTTTATAATAAAAGTACACAAAAAAAAAAAAAA [XGTACX_site7668],6.44
9,TTATTTCTCTTTTCAGTGCATTTTATAACAAAAAAA [GTGCAC_site9930],8.7
10,ATATATATAATATGCGGTACACATTAATTAAATCAT [XGTACX_site5702],6.81
11,TTATAATATATATACAGTACATATATAAAATAATAT [XGTACX_site5917],6.5
12,TAATATAAAGAAAAGGAACACACAAATATATATATA [CACACA_site8049],8.45
13,AATATATATATATATACACACACACCGATATATATA [CACACA_site8158],7.06
14,TAACAATTAATAAAAGGTACACTTGAATATGCACCA [XGTACX_site2717],10.3
15,TTAATATTTAGACATGCATGCTAATTACTATATATA [TGCATGCA_site27],6.78
16,AATTTTAAGAGCTATACATGCACTTCATAAAAAGTG [TGCATGCA_site180],8.73
17,ATAATAAAAAAAAATGCACACATATATATATATATA [CACACA_site8766],9.5
18,TATGATATAATTATGTGTACACAATTTTTTTTTTTT [XGTACX_site1084],6.55
19,ATATATATTTTATTCACACATAAGATTATAAAACAT [CACACA_site5369],6.48
20,TGTGTTCAGTATTGCACACACACAACAAAATAAAAA [CACACA_site8017],10.2
